Measurements taken from the supplement of paper PMC10600219.
Structures can show the parent of a compound that is named as a salt. In all, about 2,800 compounds were measured (“cell viability relative to vehicle”: median about 1.1, lowest 2% from about 0.19 on). Some of the results follow.

The compounds below were run on NCI-H2228 parental (assay: cell viability relative to vehicle (fraction of vehicle); NCI-H2228 is an ALK-positive lung cancer line and DTP means drug-tolerant persister; higher = less growth inhibition). Details: 100 nM; treatment time 6 days.
Summary of the method: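 Parental NCI-H2228 cells and drug-tolerant persister cells (made with 1000 nM of a targeted drug for 13 days) were seeded in 384-well plates. The next day, the 3114-agent TargetMol anti-cancer compound library was added at 100 nM, with DMSO as vehicle. After 6 days, ATP was read with the CellTiter-Glo 3D Cell Viability Assay. Each value is cell viability relative to vehicle-treated cells.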

Structure (SMILES) | cell viability
COc1ccc(-c2cc(=O)c3c(O)cc(O)cc3o2)cc1 [Acacetin] | 1.08
O=c1c(O)c(-c2cc(O)c(O)c(O)c2)oc2cc(O)cc(O)c12 [Myricetin] | 1.23
OC[C@@H](O)[C@@H](O)[C@@H](O)[C@@H](O)CO [Allitol] | 1.13
CCn1c(=Cc2cccc[n+]2CC)sc(=C2Sc3ccccc3N2C)c1=O | 1.04
Cc1cc(Cn2cnc3c2CC(C(=O)O)N(C(=O)C(c2ccccc2)c2ccccc2)C3)ccc1N(C)C (stereo unspecified) | 1.13
CCCCS(=O)(=O)N[C@@H](Cc1ccc(OCCCCC2CCNCC2)cc1)C(=O)O [Tirofiban hydrochloride monohydrate] | 1.11
O=C(Nc1cc(C(F)(F)F)ccc1N1CCCCC1)c1ccncc1 | 1.08
COc1cc2nc(N3CCN(C(=O)c4ccco4)CC3)nc(N)c2cc1OC [Prazosin hydrochloride] | 0.984
NCCS(=O)(=O)O [Taurine] | 1.21
Cc1ccc(NC(=O)c2ccc(CN3CCN(C)CC3)cc2)cc1Nc1nc(-c2cccnc2)cs1 [Masitinib] | 1.06
CCO[C@@H]1OC(=O)C[C@@H]1NC(=O)[C@@H]1CCCN1C(=O)[C@@H](NC(=O)c1ccc(N)c(Cl)c1)C(C)(C)C [Belnacasan] | 1.06
Cc1ccc(-c2nn(C(C)(C)CNC(=O)c3ccncc3)c3ncnc(N)c23)cc1 | 1.2
O=C(COCC(=O)Nc1ccc(Cl)cc1C(=O)O)Nc1cccc(-c2ccoc2)c1 | 1.03
C#CCN(C)Cc1ccccc1 [Pargyline] | 1.11
C#CCN(C)Cc1ccccc1 [Pargyline hydrochloride] | 1.05
CN(C)c1ccc(C(=O)NCCCCCCC(=O)NO)cc1 [Histone Deacetylase Inhibitor III] | 1.04
COc1ccc2cc(CCC(C)=O)ccc2c1 [Nabumetone] | 1.04
COc1ccc(-c2oc3c(CC=C(C)C)c(O[C@@H]4O[C@H](CO)[C@@H](O)[C@H](O)[C@H]4O)cc(O)c3c(=O)c2O[C@@H]2O[C@@H](C)[C@H](O)[C@@H](O)[C@H]2O)cc1 [Icariin] | 1.2
C[C@H]1[C@@H](O)O[C@@H]2O[C@@]3(C)CC[C@H]4[C@H](C)CC[C@@H]1[C@@]24OO3 [Dihydroartemisinin] | 1.1
CCn1cc(C(=O)O)c(=O)c2ccc(C)nc21 [Nalidixic acid sodium salt] | 0.867
CCn1cc(C(=O)O)c(=O)c2ccc(C)nc21 [Nalidixic acid] | 0.919
CCN(Cc1ccncc1)C(=O)C(CO)c1ccccc1 (stereo unspecified) [Tropicamide] | 1.03
CNC(=O)Nc1cc(Oc2cncc(C)c2)c(-c2ccc(OCC(C)(C)O)nc2)cn1 | 1.02
Cc1nc(Nc2ccc(F)cc2)nc(N2CCc3ccccc3C2C)c1C (stereo unspecified) [Revaprazan hydrochloride] | 1.15
Cc1ncc([N+](=O)[O-])n1CCO [Metronidazole] | 1.09
O=C(Cc1cccc(OC(F)(F)F)c1)Nc1ccc(CCCCc2nnc(NC(=O)Cc3ccccn3)s2)nn1 | 1.01

Structure (SMILES) | cell viability
CCN(CC)CC#CCOC(=O)C(O)(c1ccccc1)C1CCCCC1 (stereo unspecified) [Oxybutynin hydrochloride] | 0.998
CC(=O)O/N=C1\C(=O)N(Cc2cc(Cl)ccc2Cl)c2ccc(Cl)cc21 | 1.1
COc1cc2c(cc1OC)[C@@H](Cc1ccc(O)c(Oc3cc4c(cc3OC)CCN(C)[C@@H]4Cc3ccc(O)cc3)c1)N(C)CC2 [Liensinine] | 1.18
O=S(=O)(CCC(F)=C(F)F)c1ncc(Cl)s1 [Fluensulfone] | 1.07
CN1C2CCCC1CC(NC(=O)c1nn(C)c3ccccc13)C2 (stereo unspecified) [Granisetron hydrochloride] | 0.962
CC(C)N1CCN(c2ccc(OCC3COC(Cn4cncn4)(c4ccc(Cl)cc4Cl)O3)cc2)CC1 (stereo unspecified) [Terconazole] | 1.02
CC(C)=CCc1cc(-c2coc3cc(O)ccc3c2=O)ccc1O [Neobavaisoflavone] | 1.17
C=CC[C@@H]1/C=C(\C)C[C@H](C)C[C@H](OC)[C@H]2O[C@@](O)(C(=O)C(=O)N3CCCC[C@H]3C(=O)O[C@H](/C(C)=C/[C@@H]3CC[C@@H](O)[C@H](OC)C3)[C@H](C)[C@@H](O)CC1=O)[C@H](C)C[C@@H]2OC [Tacrolimus] | 1.13
O=C([O-])c1ccccc1O.[Na+] [Sodium salicylate] | 1
COc1ccc2[nH]cc(CCNC(C)=O)c2c1 [Melatonine] | 1.14
CC(C)(C)[Si](C)(C)Oc1ccc2oc(=O)c3c(c2c1)CCCN3 | 1.02
Cc1cc([N+](=O)[O-])ccc1NS(=O)(=O)c1cc(Cl)ccc1Cl | 0.882
CCNC(=O)c1cc2c(-c3cc(C(C)(C)O)ccc3Oc3c(C)cc(F)cc3C)cn(C)c(=O)c2[nH]1 | 0.898
COc1ccc(COc2ccc(Cc3cnc(N)nc3N)cc2OC)cc1 | 1.06
COc1cc(OC)c(/C=C/S(=O)(=O)Cc2ccc(OC)c(OP(=O)(O)O)c2)c(OC)c1 [Briciclib] | 0.238
CC1(C)CCC[C@](C)([C@H]2CC[C@]3(C)[C@@H]2[C@H](O)C[C@@H]2[C@@]4(C)CC[C@H](O)C(C)(C)[C@@H]4CC[C@]23C)O1 [Panaxadiol] | 1.09
CCN(CC)C(=O)Cc1csc(NS(=O)(=O)c2cccc(Cl)c2C)n1 | 1
COc1ccc(C[C@H](NC(=O)[C@H](C)NC(=O)CN2CCOCC2)C(=O)N[C@@H](Cc2ccccc2)C(=O)C2(C)CO2)cc1 (stereo in doubt) | 0.878
CC(=O)Nc1nc(C)c(-c2ccc(Cl)c(S(=O)(=O)NCCO)c2)s1 | 1.04
O=c1c(-c2ccc(O)cc2)coc2cc(O[C@@H]3O[C@H](CO)[C@@H](O)[C@H](O)[C@H]3O)ccc12 [Daidzin] | 1.14
OC[C@H]1O[C@@H](Oc2cc(O)cc(/C=C/c3ccc(O)cc3)c2)[C@H](O)[C@@H](O)[C@@H]1O [Polydatin] | 1.14
COc1ccc(C2CNC(=O)C2)cc1OC1CCCC1 (stereo unspecified) [Rolipram] | 1.12
O=C1OCCN1/N=C/c1ccc([N+](=O)[O-])o1 [Furazolidone] | 1.11
CCOC(=O)[C@H](CCc1ccccc1)N[C@H]1CS[C@H](c2cccs2)CN(CC(=O)O)C1=O [Temocapril HCl] | 1.03
Cc1ccc(C(C)C)cc1O [Carvacrol] | 0.966
O=S(=O)(O)c1cc(O)ccc1O [Ethamsylate] | 1.17

Structure (SMILES) | cell viability
COC(=O)C1=CO[C@@H](O[C@@H]2O[C@H](CO)[C@@H](O)[C@H](O)[C@H]2O)[C@H]2[C@@H]1[C@H](O)C[C@]2(C)O [Shanzhiside methyl ester] | 1.17
c1ccc([C@H]2CN3CCSC3=N2)cc1 [Levamisole hydrochloride] | 1.21
O=C1C[C@@H](c2ccc(O)cc2)Oc2cc(O)cc(O)c21 [Naringenin] | 1.01
COc1cc2c(Oc3ccc4[nH]c(C)cc4c3F)ncnc2cc1OCCCN1CCCC1 [Cediranib] | 0.882
O=C(O)c1cc(-c2ccccc2)nc2ccccc12 [Cinchophen] | 0.995
CC(=O)O[C@]1(C(C)=O)CC[C@H]2[C@@H]3C[C@H](C)C4=CC(=O)CC[C@]4(C)[C@H]3CC[C@@]21C [Medroxyprogesterone Acetate] | 1.24
CC(C)(C)c1nc2c3cc[nH]c(=O)c3c3cc(F)ccc3c2[nH]1 [Pyridone 6] | 0.98
COc1c2c(cc3oc(CO[C@@H]4O[C@H](CO)[C@@H](O)[C@H](O)[C@H]4O)cc(=O)c13)O[C@H](C(C)(C)O)C2 [Cimifugin beta-D-glucopyranoside] | 1.09
CN(C)c1nc(N(C)C)nc(N(C)C)n1 [Altretamine] | 1.01
COc1cc2c(cc1-c1c(C)noc1C)ncc1[nH]c(=O)n([C@H](C)c3ccccn3)c12 | 0.882
COc1nccc(-c2c(-c3ccc(F)cc3)ncn2C2CCNCC2)n1 | 1.06
CCn1c(=O)c(-c2cc[nH]n2)cc2c(C)nc(N)nc21 [Voxtalisib] | 0.965
CCCNCC(O)COc1ccccc1C(=O)CCc1ccccc1 (stereo unspecified) [Propafenone] | 1.2
NC(=O)C(c1ccccc1)(c1ccccc1)[C@@H]1CCN(CCc2ccc3c(c2)CCO3)C1 [Darifenacin HBr] | 1.3
O=C1c2ccc(Nc3ccc(F)cc3F)cc2CCc2ccc(OC[C@H](O)CO)cc21 [Skepinone-L] | 1.07
COc1ccccc1OCC(O)CN1CCN(CC(=O)Nc2c(C)cccc2C)CC1 (stereo unspecified) [Ranolazine] | 0.982
CN(C)C(=S)NN=C(c1ccccn1)c1ccccn1 | 0.212
CNS(=O)(=O)C[C@H]1CC[C@H](N(C)c2[nH]cnc3nccc2-3)CC1 [Oclacitinib] | 0.987
COc1cc(/C=C(\C#N)C(=O)Nc2nnc(C(F)(F)F)s2)ccc1OCc1ccc(C(F)(F)F)cc1C(F)(F)F | 0.992
C[C@@]12C[C@H](c3ccoc3)O[C@@]13C[C@H](OC3=O)[C@H]1[C@H]2C[C@@H]2C[C@H]1C(=O)O2 [Diosbulbin B] | 1.03
COc1cc([C@@H]2c3cc4c(cc3[C@@H](O[C@@H]3O[C@@H]5CO[C@@H](C)O[C@H]5[C@H](O)[C@H]3O)[C@H]3COC(=O)[C@H]23)OCO4)cc(OC)c1O [Etoposide] | 1.07
C[C@H]1C[C@@H]2[C@H]([C@@H](O)C[C@@]3(C)[C@H]2CC[C@]3(O)C(=O)CO)[C@@]2(C)C=CC(=O)C=C12 [Methylprednisolone] | 0.867
COc1ccc2[nH]c(-c3cccc(F)c3)cc(=O)c2c1OP(=O)(O)O | 0.213
CCn1cc(-c2cccc(C(F)(F)F)c2)c2sc(C(=N)NC3CCS(=O)(=O)CC3)cc2c1=O | 1.1
